Here are results for 53 compounds from PubChem BioAssay AID1347073 (National Center for Advancing Translational Sciences (NCATS), 2019).

Each structure is given as a SMILES string. About 200 (0.44%) of roughly 45,000 compounds were called active. About 7% were inconclusive and are not listed. Calls follow the shape of the dose curve; as a rule, active = well fitted activation curve with a large enough effect; inconclusive = small, poorly fitted or top-dose-only effect; inactive = no such curve, though single readings can be large or run the other way. Some of the results follow.

The assay is described as follows: qHTS of TDP-43 Inhibitors: NCGC Sytravon Library Screen. Also: 0% is about no effect; nearly all actives have a fitted effect of over 55% in size. The settings on record: yeast TDP-43 toxicity rescue, BacTiter-Glo growth, 24 h; series mostly up to 46.1 µM; growth rescue (activation): at the top concentration. An outline of the steps: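 TDP-43-expressing yeast, pregrown in raffinose, seeded at OD600 0.02 in galactose medium with compound for 24 hr at 30 deg C. Growth read by BacTiter-Glo luminescence, so rescue of toxicity appears as activation.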
On to `Cc1ccc(-c2nc(C)sc2CC(=O)NCc2ccco2)cc1`, for which the “growth rescue (activation)” value was inactive: 14.5%.

With `O=C(NCCSc1ccccc1)c1ccccc1Cl`, the “growth rescue (activation)” value is inactive: 27.8%. Regarding `COc1ccccc1N1C[C@@H]2C[C@@H](c3ccco3)N3CCC[C@@]23C1=O`, the “growth rescue (activation)” value is inactive: 0.361%.

`COc1ccc(C(=O)OCC(=O)NCc2ccco2)cc1OC`: the “growth rescue (activation)” value is inactive: 2.24%. With `Cc1ccc(-c2nc(S(=O)(=O)c3ccccc3)c(SCC(=O)NCC3CCCO3)o2)cc1` (stereo not drawn) the figure was inactive: 10.5%. As for `O=C(CN(Cc1ccc(Cl)cc1)C(=O)CNS(=O)(=O)c1ccc(F)cc1)NCC1CCCO1` (stereo not drawn), the “growth rescue (activation)” value was inactive: -0.78%. Consider `Cc1ccccc1NC(=O)CC1SC(=Nc2ccc(O)cc2)NC1=O` (stereo not drawn), for which the “growth rescue (activation)” value was inactive: 8.67%. The same measure for `CC(=O)Nc1ccc(N(CC(=O)NCC2CCCO2)C(=O)CCC(=O)Nc2cc(C)on2)cc1` (stereo not drawn): inactive: -9.3%; for `Cc1cc(C)cc(NC(=S)Nc2cccc3cnccc23)c1`: inactive: 15.1%; for `COc1ccc(-c2csc(NC(=O)CSc3n[nH]c(C)n3)n2)cc1`: inactive: -15%.

For the compound `COC(=O)c1cc(NC(=O)CSc2nnc(N)s2)ccc1Cl`, the “growth rescue (activation)” value was inactive: 7.4%. For `COCCCN1C(=O)C(=O)/C(=C(/O)c2ccc(C)cc2)C1/C=C/c1ccccc1` (stereo not drawn), the “growth rescue (activation)” value is inactive: -6.76%. Regarding `CC(=O)Nc1ccc(S(=O)(=O)NCc2ccncc2)cc1`, the “growth rescue (activation)” value was inactive: -4.5%. Turning to `Cc1ccc(/C(O)=C2/C(=O)C(=O)N(CC(=O)O)C2c2ccc([N+](=O)[O-])cc2)cc1` (stereo not drawn), the “growth rescue (activation)” value was inactive: -6.54%. As to `Nn1c(Cc2ccccc2F)nnc1SCC(=O)Nc1cccc(S(=O)(=O)NC2=NCCCCC2)c1`, the “growth rescue (activation)” value is inactive: -2.21%. For `Cc1ccc(-c2noc(-c3nnn(CC(=O)Nc4cccc(C(F)(F)F)c4)c3N)n2)cc1`, the “growth rescue (activation)” value is inactive: 1.87%.

Consider `CC(C)CNC(=O)C1(C)CCCCCN1C(=O)c1cc2ccccc2s1` (stereo not drawn), for which the “growth rescue (activation)” value was inactive: 29.8%. `COc1cc2c(cc1NC(=S)Nc1ccccc1C)oc1ccccc12`: the “growth rescue (activation)” value is inactive: 25.1%. As for `O=C(O)CCC(=O)Nc1nc2nccc(-c3ccccc3)n2n1`, the “growth rescue (activation)” value is inactive: 0.69%. With `Cc1ccc(S(=O)(=O)Nc2ccc3nc(-c4cccn4C)[nH]c3c2)cc1` the figure was inactive: 32.7%; with `O=[N+]([O-])c1cccc(/C([O-])=C(/C(=S)Nc2ccccc2)[n+]2ccccc2)c1`, inactive: -8.49%; with `CCc1ccc(CN2CCC(n3nccc3NC(=O)Cc3ccccc3)CC2)o1`, inactive: 29.2%. Consider `COC(=O)C1CSc2[nH]c(=O)sc2C1c1ccc(OC)c(OC)c1` (stereo not drawn), for which the “growth rescue (activation)” value was inactive: 2.35%. Turning to `COc1ccc(N/C=C\C(=O)c2ccc(C)cc2)cc1OC`, the “growth rescue (activation)” value was inactive: -2.39%. With `O=C(Nc1cccc(-c2nc3ccccc3[nH]2)c1)c1c(F)cccc1F`, the “growth rescue (activation)” value was inactive: -7.22%. With `O=C(NN=C1CCCC1)c1cc(-c2ccccc2)n[nH]1` the figure was inactive: -6.55%; with `O=C(Cn1cc(S(=O)(=O)N2CCN(c3ccccc3F)CC2)c2ccccc2c1=O)NCCCN1CCCCCC1`, inactive: 2.48%. With `CC1CN(C(=O)COC(=O)c2c(Cl)cccc2Cl)CC(C)O1` (stereo not drawn) the figure was inactive: 1.51%; with `CC(=O)Nc1ccc(C(=O)N2CCCCC2c2cc(C(=O)Nc3ccccc3Cl)no2)cc1` (stereo not drawn), inactive: 11%; with `Cc1ccc(NC(=S)NNS(=O)(=O)c2ccc3ccccc3c2)cc1Cl`, inactive: 19.7%. On to `COc1ccc(NC(=O)c2ccc3nc(-c4ccccc4)c(-c4ccccc4)nc3c2)c(OC)c1`, for which the “growth rescue (activation)” value was inactive: -2.8%. For `Cc1ccc(S(=O)(=O)NC(=O)Nc2ccc(F)c(F)c2)cc1`, the “growth rescue (activation)” value was inactive: 12.2%. `COC(=O)c1cc(C(=O)c2cc(Br)ccc2O)coc1=N`: the “growth rescue (activation)” value was inactive: 9.88%. With `CCOC(=O)C1CCN(C(=O)NS(=O)(=O)c2ccc(C)cc2)CC1`, the “growth rescue (activation)” value is inactive: 8.69%. For the compound `CCOc1cc(NC(=O)c2cccs2)c(OCC)cc1NC(=O)CCC(=O)NCCN1CCOCC1`, the “growth rescue (activation)” value is inactive: 13.6%. The same measure for `Cc1[nH]c2ccccc2c1/C=N/NC(=O)Nc1ccccc1`: inactive: 13.8%. On to `CN(Cc1ccccc1)S(=O)(=O)c1ccc(Cl)c(C(=O)N2CCC(C(N)=O)CC2)c1`, for which the “growth rescue (activation)” value was inactive: 0.075%. For `CCCC(=O)N1CCC1(C)C(=O)NCc1ccccc1SC` (stereo not drawn), the “growth rescue (activation)” value was inactive: -0.94%. For the compound `COC(C(=O)NC1CC1)c1ccccc1` (stereo not drawn), the “growth rescue (activation)” value was inactive: 2.63%. The same measure for `COCCNC(=O)c1ccccc1NC(=O)Cc1ccccc1`: inactive: -16.4%; for `O=C(C[n+]1cc(-c2ccc(Cl)c(Cl)c2)n2c1CCC2)N1c2ccccc2Sc2ccccc21`: inactive: -10%. The same measure for `C/C=C/c1ccc(OCCCCN2CCN(CC)CC2)c(OC)c1`: inactive: -4.72%; for `O=C(NCc1ccc(F)cc1)C(c1ccc(F)cc1)N(C(=O)c1csnn1)C1CC1` (stereo not drawn): inactive: 7.12%; for `COCCN(C(=S)Nc1ccc(Cl)cc1OC)C1CCN(C(C)=O)CC1`: inactive: 8.07%. As to `Cc1cc(C(=O)COC(=O)CNS(=O)(=O)c2ccc3ccccc3c2)c(C)n1-c1ccccc1`, the “growth rescue (activation)” value is inactive: 8.87%. For `CCOc1ccc2nc(SCC(=O)NCC3CCCO3)sc2c1` (stereo not drawn), the “growth rescue (activation)” value is inactive: 12%. Consider `COc1cccc2c1OC1(CCN(C(C)C)CC1)N1N=C(c3cccnc3)CC21` (stereo not drawn), for which the “growth rescue (activation)” value was inactive: 2.55%. For `COc1cc(OC)cc(C(=O)Nc2ccccc2S(=O)(=O)N2CCCC2OC(C)=O)c1` (stereo not drawn), the “growth rescue (activation)” value was inactive: 22%. As to `CCCN(CCC)Cc1c(C(=O)N/N=C/C(C)=C\c2ccco2)nnn1-c1nonc1N`, the “growth rescue (activation)” value is inactive: -11%. With `S=c1[nH]nc(Nc2cccc(Cl)c2)s1` the figure was inactive: 4.52%; with `CCC(CO)Nc1ncnc2onc(-c3ccc(F)cc3)c12` (stereo not drawn), inactive: -6.04%; with `O=C1CC(c2ccccc2)CC(O)=C1C=NCCN1CCN(Cc2ccccc2)CC1` (stereo not drawn), inactive: -16.6%. As for `O=C1CCNc2c(Cl)cccc21`, the “growth rescue (activation)” value was inactive: -7.73%.
